This is one part of the list.

For one test, the system named is HSkMC. The test can be described thus: cytotoxicity call (relative viability < 0.9). The note with it: 10 µM.
The next test concerns HepG2. The test can be described thus: cytotoxicity call (relative viability < 0.9). The following applies: 10 µM.
The next test has as its system S. aureus RN4220. The test can be described thus: growth inhibition call (relative growth <= 0.2). The following applies: 50 µM.

Take `Cc1cccc([C@@H](N)c2nccn2C)c1`: the cytotoxicity call in the test on HSkMC and with HepG2 was “inactive” throughout. Also, the growth inhibition call with S. aureus RN4220 was “inactive”.

As for `COc1ccccc1CNC(=O)C[C@@H]1CC[C@@H]2[C@H](COC[C@H](O)CN2C(=O)Nc2ccc(F)cc2)O1`, the cytotoxicity call in the test with HSkMC and in the test with HepG2 was “inactive” each time. In addition, the growth inhibition call with S. aureus RN4220 was “inactive”.

For `CC(C)NC(=O)N[C@@H]1C=C[C@@H](CC(=O)NCCN2CCCC2)O[C@H]1CO`, the cytotoxicity call with HSkMC and with HepG2 was “inactive” each time. The growth inhibition call in the test with S. aureus RN4220 is “inactive”.

For `COc1ccc(S(=O)(=O)N(C)C[C@H]2Oc3ncc(C#CC4(O)CCCC4)cc3C(=O)N([C@H](C)CO)C[C@@H]2C)cc1`, the cytotoxicity call in the test on HSkMC and in the test on HepG2 was “inactive” in each case. Further, in the test on S. aureus RN4220, the growth inhibition call is “inactive”.

In the case of `C[C@@H]1CCCCO[C@H](CN(C)C(=O)c2ccccc2)[C@@H](C)CN([C@@H](C)CO)C(=O)c2cc(NC(=O)Nc3ccc4c(c3)OCO4)ccc2O1`, the cytotoxicity call in the test on HSkMC and in the test with HepG2 was “inactive” in each case. Besides, in the test with S. aureus RN4220, the growth inhibition call is “inactive”.

On to `CCCNC(=O)N(C)C[C@H]1Oc2cc(-c3ccc(C)cc3)ccc2S(=O)(=O)N([C@@H](C)CO)C[C@H]1C`, for which the cytotoxicity call in the test with HSkMC and with HepG2 was “inactive” in each case. Moreover, the growth inhibition call in the test with S. aureus RN4220 is “inactive”.

Regarding `OC[C@H]1O[C@@](CO)(O[C@H]2O[C@H](CO)[C@@H](O)[C@H](O)[C@H]2O)[C@@H](O)[C@@H]1O`, the cytotoxicity call in the test on HSkMC and in the test on HepG2 was “inactive” in each case. Also, the growth inhibition call with S. aureus RN4220 is “inactive”.

In the case of `COc1ccc(-c2cnc3c(c2)C(=O)N([C@@H](C)CO)C[C@H](C)[C@H](CN(C)C(=O)Cc2ccncc2)O3)cc1`, the cytotoxicity call in the test on HSkMC and with HepG2 was “inactive” throughout. For the same molecule, the growth inhibition call in the test on S. aureus RN4220 is “inactive”.

Take `Cc1ccc(S(=O)(=O)Nc2ccc3c(c2)CC(=O)N([C@@H](C)CO)C[C@H](C)[C@@H](CN(C)C(=O)Nc2cccc4ccccc24)O3)cc1`: the cytotoxicity call with HSkMC and in the test with HepG2 was “inactive” in each case. The growth inhibition call in the test on S. aureus RN4220 was “inactive”.

Consider `C[C@H]1CN([C@@H](C)CO)S(=O)(=O)c2ccc(C#Cc3ccccc3)cc2O[C@@H]1CN(C)S(=O)(=O)c1ccccc1F`, for which the cytotoxicity call in the test on HSkMC and in the test with HepG2 was “inactive” in each case. Also, in the test with S. aureus RN4220, the growth inhibition call is “inactive”.

On to `O=C(C[C@H]1NC(=O)NC1=O)Nc1ccccc1`, for which the cytotoxicity call in the test with HSkMC and in the test with HepG2 was “inactive” in each case. In the test on S. aureus RN4220, the growth inhibition call is “inactive”.

For the molecule `COc1ccc(S(=O)(=O)N[C@H]2C=C[C@H](CC(=O)N3CCN(c4ccccc4)CC3)O[C@@H]2CO)cc1`, the cytotoxicity call in the test on HSkMC and in the test with HepG2 was “inactive” throughout. Moreover, in the test on S. aureus RN4220, the growth inhibition call is “inactive”.

As for `COc1ccc(C#Cc2ccc3c(c2)O[C@H](CN(C)C(=O)CN2CCOCC2)[C@H](C)CN([C@@H](C)CO)S3(=O)=O)cc1`, the cytotoxicity call in the test on HSkMC and in the test on HepG2 was “inactive” in each case. The growth inhibition call with S. aureus RN4220 was “inactive”.

Regarding `O=C(Cn1cc(CN2C(=O)COC[C@H]2c2ccccc2)nn1)N1CCC2(CC1)C(=O)NCN2c1ccccc1`, the cytotoxicity call in the test on HSkMC and in the test on HepG2 was “inactive” in each case. Further, the growth inhibition call with S. aureus RN4220 is “inactive”.

Regarding `CCOC(=O)CCCCCC(=O)Nc1ccc2c(c1)C(=O)N([C@@H](C)CO)C[C@H](C)[C@H](CN(C)C(=O)Nc1ccc(C(F)(F)F)cc1)OCCCC[C@H](C)O2`, the cytotoxicity call in the test on HSkMC and in the test with HepG2 was “inactive” in each case. Moreover, the growth inhibition call with S. aureus RN4220 was “inactive”.

With `C[C@H]1CN([C@@H](C)CO)C(=O)CCCn2nncc2CO[C@H]1CN(C)S(=O)(=O)c1ccc(Cl)cc1`, the cytotoxicity call in the test on HSkMC was “inactive”. Moreover, the cytotoxicity call in the test on HepG2 was “active”. Also, the growth inhibition call in the test with S. aureus RN4220 was “inactive”.

As to `O=C(Cc1ccncc1)Nc1ccc2c(c1)[C@H]1C[C@@H](CC(=O)N3CCc4ccccc4C3)O[C@@H](CO)[C@H]1O2`, the cytotoxicity call with HSkMC and in the test on HepG2 was “inactive” each time. In addition, the growth inhibition call with S. aureus RN4220 was “inactive”.

For the molecule `C[C@@H]1CN([C@@H](C)CO)C(=O)Cc2cc(NC(=O)CCCCCC(=O)Nc3ccccc3N)ccc2O[C@H]1CN(C)Cc1ccc(-c2ccccc2)cc1`, the cytotoxicity call with HSkMC and in the test on HepG2 was “inactive” each time. Also, the growth inhibition call in the test with S. aureus RN4220 is “inactive”.

With `CC1(C)C[C@H](c2nc(-c3ccccc3)cs2)CCS1`, the cytotoxicity call in the test with HSkMC is “inactive”. In the test on HepG2, the cytotoxicity call was “active”. Further, in the test on S. aureus RN4220, the growth inhibition call was “inactive”.

On to `COC(=O)C1(N2CC3=C[C@@H]([C@@H](O)Cc4ccccc4)n4c(=O)n(C)c(=O)n4[C@@H]3[C@@H](C3CC3)O2)CCCC1`, for which the cytotoxicity call with HSkMC and in the test with HepG2 was “inactive” in each case. In the test on S. aureus RN4220, the growth inhibition call is “inactive”.

`C[C@H]1CN([C@@H](C)CO)C(=O)c2cc(C#CC3(O)CCCC3)cnc2O[C@@H]1CN(C)C(=O)Cc1ccncc1`: the cytotoxicity call in the test with HSkMC and with HepG2 was “inactive” in each case. Also, in the test on S. aureus RN4220, the growth inhibition call is “inactive”.

`C[C@@H]1CN([C@@H](C)CO)C(=O)c2cc(NS(=O)(=O)c3cn(C)cn3)ccc2O[C@H]1CN(C)CC1CCCCC1`: the cytotoxicity call in the test on HSkMC and with HepG2 was “inactive” each time. Besides, the growth inhibition call with S. aureus RN4220 is “inactive”.

With `Clc1cc(Cl)cc(Oc2nc(-c3ccccc3)ns2)c1`, the cytotoxicity call with HSkMC and in the test on HepG2 was “inactive” in each case. Moreover, the growth inhibition call in the test with S. aureus RN4220 is “inactive”.

Consider `C[C@H]1CCCCO[C@@H](CN(C)S(=O)(=O)c2ccccc2)[C@@H](C)CN([C@@H](C)CO)C(=O)c2cc(NC(=O)Nc3ccc(C(F)(F)F)cc3)ccc2O1`, for which, in the test on HSkMC, the cytotoxicity call is “inactive”. Further, in the test on HepG2, the cytotoxicity call is “active”. For the same molecule, the growth inhibition call in the test with S. aureus RN4220 was “inactive”.

Consider `C[C@@H]1CN([C@@H](C)CO)C(=O)Cc2cc(NS(=O)(=O)c3ccccc3)ccc2O[C@@H]1CN(C)Cc1ccc(C(=O)O)cc1`, for which the cytotoxicity call in the test with HSkMC and with HepG2 was “inactive” each time. Besides, in the test with S. aureus RN4220, the growth inhibition call was “inactive”.

On to `C[C@@H]1CN([C@H](C)CO)C(=O)c2cc(NC(=O)Cc3ccccc3)ccc2O[C@H]1CN(C)C(=O)Nc1ccc(C(F)(F)F)cc1`, for which the cytotoxicity call in the test on HSkMC (human skeletal muscle cells) and in the test on HepG2 was “inactive” throughout. Moreover, the growth inhibition call with S. aureus RN4220 is “inactive”.

With `CC(C)(C)S(=O)N1Cc2cc(C(=O)NCc3ccc(Oc4ccccc4)cc3)nc(-c3cccc(-c4cccc(F)c4)c3)c2[C@@H]1CCO` (some centres undefined), the cytotoxicity call in the test with HSkMC was “inactive”. Besides, the cytotoxicity call in the test with HepG2 is “active”. Besides, the growth inhibition call in the test on S. aureus RN4220 is “inactive”.

As for `C[C@H]1CN([C@@H](C)CO)C(=O)c2cc(NS(=O)(=O)c3cn(C)cn3)ccc2O[C@@H]1CN(C)S(=O)(=O)c1ccc(Cl)cc1`, the cytotoxicity call in the test with HSkMC and in the test with HepG2 was “inactive” each time. The growth inhibition call with S. aureus RN4220 is “inactive”.
